Among all 310,000 compounds or so, about 2,200 (0.71%) showed an effect of 50% or more. The effect is printed as a negative number. The list shows a part of the results.
molecular target: human ether-à-go-go-related gene (hERG) potassium channel (human, UniProt Q12809); test: primary screen, population patch clamp on CHO cells stably expressing hERG
Sequence (Q12809 whole entry, looked up): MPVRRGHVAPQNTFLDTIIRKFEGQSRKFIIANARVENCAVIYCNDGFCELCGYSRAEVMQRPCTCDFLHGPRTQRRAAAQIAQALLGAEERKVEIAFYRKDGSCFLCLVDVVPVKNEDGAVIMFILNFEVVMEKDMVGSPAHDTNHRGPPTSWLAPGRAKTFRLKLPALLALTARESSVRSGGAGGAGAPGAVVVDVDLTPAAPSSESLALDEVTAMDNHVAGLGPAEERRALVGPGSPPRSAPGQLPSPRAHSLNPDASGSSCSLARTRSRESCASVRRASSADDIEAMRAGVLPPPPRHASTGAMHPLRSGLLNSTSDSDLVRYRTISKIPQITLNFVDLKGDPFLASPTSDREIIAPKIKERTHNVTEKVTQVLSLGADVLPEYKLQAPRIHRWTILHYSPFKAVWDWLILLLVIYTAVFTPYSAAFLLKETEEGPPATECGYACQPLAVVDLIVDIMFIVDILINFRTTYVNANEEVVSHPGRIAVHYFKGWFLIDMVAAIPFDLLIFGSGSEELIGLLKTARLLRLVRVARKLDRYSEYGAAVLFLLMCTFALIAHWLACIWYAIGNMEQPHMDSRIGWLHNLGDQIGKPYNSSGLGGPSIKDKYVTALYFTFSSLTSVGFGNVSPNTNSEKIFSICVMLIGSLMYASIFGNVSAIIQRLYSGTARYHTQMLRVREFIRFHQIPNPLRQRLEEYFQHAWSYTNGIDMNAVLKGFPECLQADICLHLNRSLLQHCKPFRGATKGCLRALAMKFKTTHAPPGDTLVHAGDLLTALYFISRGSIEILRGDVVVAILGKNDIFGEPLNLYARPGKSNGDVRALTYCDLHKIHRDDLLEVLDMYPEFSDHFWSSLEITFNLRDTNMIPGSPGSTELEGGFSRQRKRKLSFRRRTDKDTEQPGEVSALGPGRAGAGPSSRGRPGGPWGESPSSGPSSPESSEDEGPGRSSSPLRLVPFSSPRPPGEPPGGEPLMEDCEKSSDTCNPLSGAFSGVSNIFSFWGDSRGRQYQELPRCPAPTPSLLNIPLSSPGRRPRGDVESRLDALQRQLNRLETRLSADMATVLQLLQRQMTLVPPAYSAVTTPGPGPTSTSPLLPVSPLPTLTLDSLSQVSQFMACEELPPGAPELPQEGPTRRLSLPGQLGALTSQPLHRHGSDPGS

SMILES	hERG current change (%, negative = inhibition) at 1uM [%]
COC1(c2cc(-c3ccccc3)nc(N)n2)CCCCC1	1.88
Cc1c2cnn(CC(=O)N3CCC4(CC3)OCCO4)c(=O)c2c(C)n1Cc1ccc(F)cc1	-13.1
Nc1nnc(SCC(=O)NC2CCCc3ccccc32)s1 (stereo not shown)	10
C=CCNC(=O)c1ccccc1S(=O)c1ccccc1C#N (stereo not shown)	7.99
Cc1ccc2cc3c(NC(=O)c4ccco4)nn(CC(C)C)c3nc2c1	1.88
COc1ccc(/C=N/NC(=O)CCn2nnc3ccccc32)cc1	11.5
COc1ccccc1NC(=S)Nc1cccc(F)c1	14.2
CNC(=O)N(O)C1N(C)C(=O)N(CC(=O)OC)C1(C)C (stereo not shown)	2.06
CC(C)(C)c1ccc(-c2c(C(=O)O)c(C(=O)O)c3n2CSC3)cc1	10.8
COc1ccccc1C(=O)NCCC(=O)NCc1ccccn1	5.39
COc1ccc(C(=O)N2N=C(c3cccc(OC)c3)CC2(O)C(F)(F)F)cc1 (stereo not shown)	7.97
Cc1cccn2c(=O)c3cc(C(=O)N4CCN(Cc5ccccc5)CC4)sc3nc12	-8.01
Cc1ccc(CNC(=O)c2ccc(NS(=O)(=O)c3c(C)noc3C)cc2)cc1	3.45
COc1cc(Cl)c(C)cc1Nc1ncccn1	7.69
Cc1oc(-c2ccc(Cl)cc2)nc1CN1CCCC(C(=O)NCc2cccnc2)C1 (stereo not shown)	-43.6
COc1cc(/C=N/n2cnnc2)ccc1OCCSc1ccc(C)cc1	2.9
C(=C\c1ccccc1)/CN1CCN(c2ncnc3c2oc2ccccc23)CC1	-8.87
Cc1cc(NC(=O)NC(C)(C(F)(F)F)C(F)(F)F)no1	9.95
COc1ccccc1/C=C/C(C)=O	12.4
CC1=C(C(=O)OC(C)C)C(c2ccncc2)n2ncnc2N1 (stereo not shown)	7.05
C=C(C)COc1ccc(-c2nc(N)ncc2-c2ccc(Br)cc2)c(O)c1	20.8
CN(C(=O)c1ccc2nccnc2c1)C1CCCCC1	13.8
Cc1cc(C)n(-c2cc(C(C)(C)C)nc3c(-c4ccc(Cl)cc4)cnn23)n1	-1.68

SMILES	hERG current change (%, negative = inhibition) at 1uM [%]
Cc1ccc(S(=O)(=O)NNC(=S)Nc2cccc(C)c2C)cc1	2.3
CCOC(=O)CN(C(=O)CSc1nnc(-c2ccncc2)n1CCCOC)c1ccccc1	15.5
O=C(O)c1cc2nc(-c3ccccc3)cc(-c3ccccc3)n2n1	7.72
O=C(O)c1ccc(NS(=O)(=O)c2ccc(Cl)c(C(=O)Nc3ccccc3)c2)cc1	11.4
COc1ccc(/C=N/NC(=O)Cc2cc(OC)c(OC)cc2[N+](=O)[O-])cc1	15
CCOC(=O)c1[nH]c(COC(=O)C2CC(=O)N(Cc3ccccc3)C2)c(C(=O)OCC)c1C (stereo not shown)	-4.18
O=C(NNC(=O)C1CCN(S(=O)(=O)c2ccc(Cl)cc2)CC1)c1ccccc1	11.5
Cc1ccc(NC(=O)Cc2cn3ccsc3n2)nc1	9.87
O=C(COc1ccc(S(=O)(=O)NCc2ccccc2)cc1)N1CCOCC1	4.14
CCn1cc(C(=O)NCC2CCCO2)c(=O)c2cc(F)c(N3CCN(C)CC3)cc21 (stereo not shown)	12.5
Cc1[nH]c2ccc(C(=O)NC3CCCC3)cc2c1C	5.73
O=C(O)/C=C/c1ccc(S(=O)(=O)Nc2ccc(C(=O)NCC(=O)O)cc2)cc1	-1.16
C=CCc1cccc(CNc2c(C)n(C)n(-c3ccccc3)c2=O)c1O	4.43
COc1ccc(S(=O)(=O)N2CCOCC2)cc1NC(=O)CSc1nnc2ccccn12	6.39
O=C(Nc1nc(-c2ccccn2)cs1)c1cccc(-n2cnnn2)c1	-0.276
CCC(C)(C)NC(=O)C(c1cccs1)N(C(=O)c1ccn[nH]1)c1cccc(OC)c1 (stereo not shown)	-23.4
O=C(NCC1CCOCC1)c1ccc2nc(Cc3cccc(Cl)c3)oc2c1	8.35
CCC(C(=O)Nc1cccc(C(=O)O)c1C)c1ccccc1 (stereo not shown)	13.1
Cc1nc2c3ccccc3nc(NNC(=O)CCC(=O)NCCN3CCN(c4ccccc4)CC3)n2n1	6.33
Cn1c(SCC(=O)NCc2ccco2)nnc1-c1ccccc1	5.48
CCCn1c2ccccc2c2cnn(CC(=O)NC3CCC(C)CC3)c(=O)c21 (stereo not shown)	24.2
COc1cc2c(cc1OC)CN(C(=O)c1cc(C3CC3)nn1-c1ccccc1)CC2	-3.34
Cc1ccc(NC(=O)CCC(=O)N/N=C/c2coc3ccccc3c2=O)cc1	9.08

SMILES	hERG current change (%, negative = inhibition) at 1uM [%]
CN(C)S(=O)(=O)c1ccc(NC(=O)c2ccc([N+](=O)[O-])cc2)cc1	9.94
S=C(NC1CCCCC1)N(CCc1nc2ccccc2[nH]1)C1CCCC1	12.4
Cc1cc(C)cc(NC(=S)NCc2ccncc2)c1	6.75
C/C=C/C(=O)NCCc1ccc(OC)c(OC)c1	4.29
CCC(CC)C(=O)NCCN1CCN(C(=O)C(CC)CC)CC1	14
COc1ccc(CCC(=O)Nc2ccccc2C(F)(F)F)cc1	16.1
O=C(Nc1ccc(Br)cc1)c1ccc(-n2cnnn2)cc1	13
CCCn1c(SCC(=O)N2CCCCC2)nnc1-c1ccccn1	6.39
COc1cc(OC)cc(OCC(O)Cn2cnc3cc(C)c(C)cc32)c1 (stereo not shown)	8.38
CC(=O)N1CCN(C(=S)NC(=O)C23CC4CC(CC(C4)C2)C3)CC1	15.4
O=C(CN1CCOCC1)N/N=C/C(Br)=C\c1ccccc1	10.8
COc1cc(CC(=O)Nc2ccc3nc(C)sc3c2)cc(OC)c1OC	2.29
Cc1noc(C)c1C(=O)Nc1ccc(Cl)cc1C(F)(F)F	-2.48
Nc1nccc(-c2cc(-c3ccc(Cl)cc3Cl)no2)n1	10.5
CC(=O)c1c(C(C)=O)c(C)n(-c2nc(-c3cccs3)c(C)s2)c1C	17.3
C=CCNC(=O)C1CCC(CNc2nc(=S)[nH]c3ccccc23)CC1 (stereo not shown)	25.1
COc1cc(C(=O)/C=C/Nc2ccc(NC(C)=O)cc2)cc(OC)c1OC	7.16
Cc1cc2[nH]ncc2cc1NC(N)=S	11.5
O=C(CSc1nc(-c2ccccc2)cc(=O)[nH]1)Nc1ccccc1	10.9
Cc1ccc(NC(=O)CSCC(=O)Nc2nnc(C3CC3)s2)cc1	10.1
Nc1nonc1-n1nnc(C(=O)N/N=C/c2ccoc2)c1CSc1ccc(Cl)cc1	11.4
COc1ccccc1CN1CC(C(=O)NCc2cc(F)cc(C(F)(F)F)c2)CCC1=O (stereo not shown)	9.11
CSc1ncccc1C(=O)Nc1nc2ccc(F)cc2s1	16.2

SMILES	hERG current change (%, negative = inhibition) at 1uM [%]
COCCCn1c(=O)c2ccccc2n(CC(=O)N2CCCc3ccccc32)c1=O	-4.71
O=C1NC(=O)N(CCC2=CCCCC2)C(=O)/C1=C/c1ccc(O)cc1	2.46
O=C(N/C=N/OCc1ccc(Cl)cc1Cl)NOCc1c(Cl)cccc1Cl	6.81
c1ccc(-c2ncc(-c3ccn[nH]3)s2)cc1	9.65
CC1(C)CC(=O)C(C=Nc2cc(C(=O)c3ccccc3)ccc2N)=C(O)C1	1.02
CC(NS(=O)(=O)c1ccccc1)C1CC2CCC1C2 (stereo not shown)	8.94
C=CCn1c(-c2ccccc2)nc2nc3ccccc3nc21	9.69
N#CC1(NC(=O)COC(=O)C2=COCCO2)CCCCC1	5.66
Nc1nc(Nc2ccccc2)nc(N2CCCC2)c1[N+](=O)[O-]	7.03
COc1cccc(C(=O)Nc2ccc(F)c(F)c2F)c1	1.96
CCc1nnc(NC(=O)CCC(=O)NCCc2ccccc2)s1	14
CCN(C(=O)COC(=O)c1nn(-c2ccccc2)c(=O)c2ccccc12)C1CCS(=O)(=O)C1 (stereo not shown)	-11.8
COc1cccc(OC)c1C(=O)Nc1nc(COc2ccccc2)cs1	13.5
CC(C)Cn1cc(F)c(=O)n(CC(C)C)c1=O	17.7
COc1cccc(NC(=O)CSc2nnc(Cn3cnc([N+](=O)[O-])n3)n2C)c1	16.3
O=C(Cc1ccc([N+](=O)[O-])cc1)N1CCCc2ccccc21	-5.83
Cc1cc(-c2ccccc2)nc(N/N=C/c2ccccc2F)n1	13.3
O=S(=O)(NCC(c1cccnc1)N1CCN(c2ccccc2)CC1)c1cccs1 (stereo not shown)	-16.1
FC(F)(F)c1ccc2c(c1)N1CCCC1CN2 (stereo not shown)	-2.23
Cc1cc(S(=O)(=O)Nc2ccc3cn[nH]c3c2)c(C)cc1Cl	2.93
COc1ccc(-c2cc(C(=O)N(C)CCc3ccc(OC)c(OC)c3)c3ccccc3n2)cc1	7.94
COc1ccc(Cl)cc1NC(=O)COC(=O)Cc1cccs1	6.22
